# Data: PubChem BioAssay AID1379 (National Center for Advancing Translational Sciences (NCATS), 2008)
# Hit rate of the full screen: of about 200,000 compounds, about 560 (0.28%) were called active. Calls come from the whole dose curve; as a rule, active = well fitted inhibition curve with a large enough effect; inconclusive = small, poorly fitted or top-dose-only effect; inactive = flat fitted curve, though single readings scatter. Only a part is listed here, and it is no random draw.
# Biological target: Luciferin 4-monooxygenase (Photuris pensylvanica) (UniProt Q27757)
# Assay: Counterscreen for Luciferase (Kinase-Glo TM) Inhibition; note: nearly all actives have a fitted effect of over 60% in size
# Details: ATP luminescence, 8 min; at 38.3 µM (top of the series) unless noted
# Method: NCGC Assay Overview: NIH Molecular Libraries Screening Centers Network [MLSCN] NIH Chemical Genomics Center [NCGC] MLSCN Grant: None Luciferase (Kinase-Glo, Promega Corporation) was assayed for its ability to generate light using ATP and luciferin as substrates. The ATP concentration in the assay (10 uM) was within the linear range of enzyme activity for the assay conditions used.
# NCGC Assay Protocol Summary: Four uL of substrate mix (final concentration, 50 mM imidazole pH 7.2, 50 mM KCl, 7 mM MgCl2, 10 uM ATP, 0.01% Tween 20, 0.05% BSA) was dispensed into white 1536 well plates. Twenty-three nL of compound was delivered by a pin tool and 2 uL of luciferase detection mix (Kinase-Glo, Promega)) was added. Following 8-minute incubation at ambient temperature, luminescence was measured by a ViewLux (Perkin Elmer) at 5 seconds exposure/plate.
# % is set by controls: 0 for no effect and ±100 for the full control effect.
row,SMILES,"activity change, negative = inhibition"
1,Nc1nc(=S)c2ncn([C@H]3O[C@@H](CO)[C@@H](O)[C@@H]3O)c2[nH]1,inactive: 0.173% [at 17.1 µM]
2,CNC(C)[C@@H](O)c1ccccc1 (stereo partly drawn),inactive: 0.408%
3,NC(N)=Nc1ccc2[nH]c3c(c2c1)C[C@@]1(O)[C@H]2Cc4ccc(O)c5c4[C@@]1(CCN2CC1CC1)[C@H]3O5,inactive: 37.7%
